In publication PMC4336329 (PLoS ONE, 2015):
About 2,200 (0.71%) of roughly 310,000 compounds showed an effect of 50% or more. The effect is printed as a negative number. Some of the results follow.

Each compound was assayed against human ether-à-go-go-related gene (hERG) potassium channel (human, UniProt Q12809) (assay: primary screen, population patch clamp on CHO cells stably expressing hERG).
Chain of human ether-à-go-go-related gene (hERG) potassium channel (Q12809 whole entry, looked up): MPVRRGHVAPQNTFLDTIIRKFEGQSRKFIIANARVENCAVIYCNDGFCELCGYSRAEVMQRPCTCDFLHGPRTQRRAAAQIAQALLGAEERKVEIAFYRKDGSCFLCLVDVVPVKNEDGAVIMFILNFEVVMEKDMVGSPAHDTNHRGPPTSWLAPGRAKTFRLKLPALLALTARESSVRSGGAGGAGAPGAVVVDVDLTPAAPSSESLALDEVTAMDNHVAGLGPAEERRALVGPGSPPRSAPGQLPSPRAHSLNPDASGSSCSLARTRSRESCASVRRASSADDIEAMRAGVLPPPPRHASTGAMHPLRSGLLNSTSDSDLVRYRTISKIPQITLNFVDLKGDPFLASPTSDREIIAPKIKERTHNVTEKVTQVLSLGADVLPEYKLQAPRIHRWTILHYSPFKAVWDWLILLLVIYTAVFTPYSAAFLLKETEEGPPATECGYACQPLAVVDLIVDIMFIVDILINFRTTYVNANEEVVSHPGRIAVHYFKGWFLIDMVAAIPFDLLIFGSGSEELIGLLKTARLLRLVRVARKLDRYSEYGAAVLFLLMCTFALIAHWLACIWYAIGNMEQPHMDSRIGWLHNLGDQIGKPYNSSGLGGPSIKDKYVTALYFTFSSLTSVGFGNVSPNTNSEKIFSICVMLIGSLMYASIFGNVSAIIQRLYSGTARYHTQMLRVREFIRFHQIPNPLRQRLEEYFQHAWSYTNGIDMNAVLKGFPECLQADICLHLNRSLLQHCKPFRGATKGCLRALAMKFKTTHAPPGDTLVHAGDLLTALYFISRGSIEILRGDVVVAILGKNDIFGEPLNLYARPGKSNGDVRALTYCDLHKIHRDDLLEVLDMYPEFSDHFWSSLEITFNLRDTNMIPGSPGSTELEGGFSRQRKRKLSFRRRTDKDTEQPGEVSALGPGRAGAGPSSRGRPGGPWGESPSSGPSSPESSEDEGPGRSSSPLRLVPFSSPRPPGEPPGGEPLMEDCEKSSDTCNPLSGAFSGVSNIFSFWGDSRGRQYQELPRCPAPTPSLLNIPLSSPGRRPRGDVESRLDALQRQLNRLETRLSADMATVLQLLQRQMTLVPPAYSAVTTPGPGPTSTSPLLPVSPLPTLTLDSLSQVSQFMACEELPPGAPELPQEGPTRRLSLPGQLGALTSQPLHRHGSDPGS

Row | Structure (SMILES) | hERG current change (%, negative = inhibition) at 1uM
1 | CC(NS(=O)(=O)c1ccc(OCC(=O)NCc2ccncc2)cc1)c1ccccc1 (stereo not shown) | 16%
2 | COc1ccc(Cl)cc1NC(=S)NC(=O)c1ccc2c(c1)OCO2 | 15.2%
3 | C=CCn1c(CCNC(=O)C(C)(C)C)nc2ccccc21 | 13.5%
4 | COc1cccc(CNC(=O)c2ccc(NC(=O)C3=CSCCO3)cc2)c1 | 17%
5 | COCCCN(C(=S)NC(=O)C(C)(C)C)c1c(N)n(Cc2ccccc2)c(=O)[nH]c1=O | 17%
6 | Cc1ccccc1C(=O)Nc1nnc(CC(=O)N/N=C/c2ccncc2)s1 | 13.9%
7 | COc1ccc(NC(=O)CN(c2ccc(OC)cc2)S(=O)(=O)c2c(C)nn(C)c2C)cc1 | 14.3%
8 | CCn1c(SCC(=O)C(C)(C)C)nnc1-c1ccccn1 | 15.9%
9 | O=C1N/C(=N\N=C\c2cccs2)SC1Cc1ccc(Cl)cc1 (stereo not shown) | -1.78%
10 | CCOC(=O)c1ccc(NC(=O)CC2C(=O)OCCN2CC)cc1 (stereo not shown) | 8.02%
11 | CCC(=O)N1CCN(c2ccc(Cl)cc2NC(=S)NC(=O)c2ccco2)CC1 | 6.25%
12 | O=S(=O)(NCCc1ccccn1)c1ccc(OC(F)(F)F)cc1 | 11.4%
13 | Cc1csc(SCC(=O)NC23CC4CC(CC(C4)C2)C3)n1 | -5.7%
14 | O=C(COc1ncnc2ccccc12)Nc1ccccc1[N+](=O)[O-] | 4.24%
15 | O=C1Nc2ccccc2C12Nc1ccccc1S2 (stereo not shown) | 4.9%
16 | CC12CC3(C)CC(C)(C1)CC(C(=O)NC(=S)NC(C)(C)C)(C2)C3 | 9.73%
17 | CCCSc1nnc(NC(=O)Nc2ccccc2OC)s1 | 16.9%
18 | O=C(CCc1ccc(S(=O)(=O)N2CCOCC2)cc1)N/N=C/c1ccc(F)cc1F | 1.78%
19 | CCCNC(=O)c1ccccc1NS(=O)(=O)c1ccc(OC)c(OC)c1 | -5.14%
20 | CC1=C(C(=O)N2CCCC(CCC(=O)NCc3ccc(F)c(F)c3)C2)OCCO1 (stereo not shown) | 13.8%
21 | COc1ccc(S(=O)(=O)N2CCOCC2)cc1NC(=O)CSc1nnc2c(n1)[nH]c1ccccc12 | 5.29%
22 | Cc1cc(C)c[n+](CC(=O)c2ccc(C)c([N+](=O)[O-])c2)c1.[Br-] | 4.61%

Row | Structure (SMILES) | hERG current change (%, negative = inhibition) at 1uM
23 | Cc1c(O)c2ccccc2oc1=O | 9.48%
24 | CC(=O)N1c2ccc(S(=O)(=O)N3CCCC(C(=O)Nc4ccc(C)cc4C)C3)cc2CC1C (stereo not shown) | 9.24%
25 | COc1cccc(-c2nnc(NC(C)=O)o2)c1 | 2.28%
26 | Oc1ccccc1-c1nc(NCC2CCCO2)c2ccccc2n1 (stereo not shown) | 16.6%
27 | O=C1c2ccccc2C(=O)N1c1cccc2ccccc12 | 6.93%
28 | O=C(Nc1ccccc1C(=O)N1CCCC1)c1ccc(Cl)c([N+](=O)[O-])c1 | 7.51%
29 | O=C(COC(=O)Cc1cccs1)Nc1ccc(OC(F)(F)F)cc1 | 8.83%
30 | O=C(Cc1ccc([N+](=O)[O-])cc1)Nc1cccc(C(F)(F)F)c1 | 2.82%
31 | CCOC(=O)C(NC(C)=O)(N1CCOCC1)C(F)(F)F (stereo not shown) | 17.2%
32 | CN(C)c1ccc(C(O)P(=O)(OCc2ccccc2)c2ccc(N(C)C)cc2)cc1 (stereo not shown) | 13.8%
33 | Cc1ccc(S(=O)(=O)NCC(=O)NC2CCCCCC2)cc1 | -9.47%
34 | Cl.O=C(Cc1ccccc1)NC1CCN(Cc2ccccc2)CC1 | 12.9%
35 | CCCCn1c(SCC(N)=O)nnc1-c1ccco1 | 6.2%
36 | CCOC(=O)c1ccccc1NC(=O)CN(c1ccccc1C)S(C)(=O)=O | 13.2%
37 | C=CCOC(=O)C1=C(C)NC(C)=C(C(=O)OCC=C)C1c1cn(-c2ccccc2)nc1-c1ccco1 | 9.72%
38 | Cc1ccccc1-n1c(SCC(=O)Nc2c(C)cccc2C)nc(O)cc1=O | 12.8%
39 | CCOc1ccc2nc(SCC(=O)NCc3ccc(S(N)(=O)=O)cc3)sc2c1 | 8.59%
40 | CC(=O)NCCC(=O)Nc1nc(-c2ccccc2Cl)cs1 | 2.26%
41 | Cc1ccc(C)n1-c1cccc(NC(=O)c2ccccc2)c1 | 2.67%
42 | CCOC(=O)c1c(C)[nH]c(C(=O)COC(=O)C2(C)CC2(Cl)Cl)c1C (stereo not shown) | -11.7%
43 | CSCCC(NC(=O)c1ccco1)C(=O)NCC(c1ccco1)N1CCCCC1 (stereo not shown) | 6.49%
44 | Cc1ccc(CSc2ccc(-c3cccs3)nn2)cc1 | 5.61%

Row | Structure (SMILES) | hERG current change (%, negative = inhibition) at 1uM
45 | CCOc1cc2c(cc1OCC)-n1cccc1C(c1ccc(OC(F)F)cc1)NC2.Cl (stereo not shown) | -47.9%
46 | CCCn1c(N2CCN(Cc3ccc(Cl)cc3)CC2)nc2ccccc21.Cl | -4.77%
47 | CC(C)C[C@H]1COCCS(=O)(=O)N1Cc1cccc(Cl)c1 | 10.1%
48 | CC(=O)N1CCC(N(C(=O)Nc2c(F)cccc2F)C(C)C)CC1 | 17.4%
49 | Nc1ncnc2nc(SCC(=O)N3CCN(c4ccccc4)CC3)[nH]c12 | -0.857%
50 | CCNC(=O)NC(=O)COC(=O)C1CSC2(C)CCC(=O)N12 (stereo not shown) | 11.3%
51 | CCOC(=O)c1cccc(NC(=O)CCn2cccc2)c1 | 2.9%
52 | Cc1c(C(=O)N2CCCC2)c(S(=O)(=O)Nc2cccc(Br)c2)c(C)n1C | 6.78%
53 | CCOCCCNC(=O)c1c[nH]c2cc(C)ccc2c1=O | -0.128%
54 | CCNC(=S)Nc1cccc(S(=O)(=O)NC2=NCCC2)c1 | 7.43%
55 | Cl.OC(c1ccc(Cl)cc1)c1nccc2ccccc12 (stereo not shown) | 8.91%
56 | COc1ccc(C(=O)NCC(=O)OCc2ccc([N+](=O)[O-])cc2)cc1 | -1.55%
57 | COCCn1c(C)cc(/C=N/NC(=O)c2cc3ccccc3cc2O)c1C | 21.4%
58 | Cc1ccc(NC(=O)c2oc3ccccc3c2NC(=O)C2CCCO2)cc1C (stereo not shown) | -7.6%
59 | N#Cc1ccc(OCC(=O)OCC(=O)NCCC2=CCCCC2)cc1 | 0.236%
60 | CCOc1ccc(S(=O)(=O)n2nc(C)cc2C)c2ccccc12 | 9.91%
61 | CCc1cccc(OCC(=O)Nc2ccc(S(=O)(=O)Nc3onc(C)c3C)cc2)c1 | 9.89%
62 | COc1cccc(/C=N/n2c(=O)[nH]c3ccccc32)c1OC | 16.2%
63 | COc1ccc(CN2CC34C=CC(O3)C(C(=O)O)C4C2=O)cc1 (stereo not shown) | 5.7%
64 | COC(=O)[C@]1(C)N[C@H](c2ccc(SC3CCCCC3)c(OC)c2)[C@@H]2C(=O)N(C)C(=O)[C@@H]21.O=C(O)C(F)(F)F | 9.14%
65 | CC(=O)N1CCC(N(CCN2CCOCC2)C(=S)Nc2cccc(C)c2C)CC1 | 15.1%
66 | Cc1nnc(NC(=O)CSc2nnc(CNC(=O)c3ccc(S(=O)(=O)N(C)C)cc3)o2)s1 | 18.1%

Row | Structure (SMILES) | hERG current change (%, negative = inhibition) at 1uM
67 | NC(=O)CSc1nnc(-c2ccco2)n1N | 10.1%
68 | COc1cc(OC)c(OC)cc1/C=N/Nc1ncnc2c1[nH]c1ccc(C)cc12 | 11%
69 | O=C(Nc1ccc(C(=O)O)cc1)Nc1cccc([N+](=O)[O-])c1 | 17.4%
70 | Cc1ccccc1C(=O)Nc1c2c(nc3ccccc13)CCCC2 | 6.49%
71 | Cc1nc(COc2ccc(C(=O)Nc3ccccc3N3CCOCC3)cc2)cs1 | -12.1%
72 | O=C(O)c1cc(N/N=C/c2ccc(N3CCOCC3)s2)ccc1Cl | 6.42%
73 | COc1cccc(C(=O)NCC(=O)N/N=C/c2cccs2)c1 | 10.7%
74 | COc1ccc(-n2nc3c(c2NC(=O)C(C)Oc2ccccc2)CS(=O)C3)cc1 (stereo not shown) | 13%
75 | [O-]/[N+](=C\c1ccncc1)c1ccc(Br)cc1 | 11.9%
76 | N#Cc1ccc(-c2csc(NC(=O)c3cc(-c4cccs4)nc4ccccc34)n2)cc1 | 5.22%
77 | COC(=O)c1c(NC(=O)CN2CCN(S(=O)(=O)c3ccccc3[N+](=O)[O-])CC2)sc2c1CCC(C)C2 (stereo not shown) | 9.66%
78 | Cc1ccc(NC(=O)c2cc(S(=O)(=O)N3CCc4ccccc43)cn2C)cc1C | -1.49%
79 | CCOC(=O)C1=NN(C(=O)c2ccccc2)C(O)(c2ccc(C)cc2)C1 (stereo not shown) | -1.77%
80 | Cc1ccc(S(=O)(=O)/C=C/c2ccccc2)cc1 | 21.1%
81 | COc1cccc(NC(=O)c2ccc3c(c2)N(CC(=O)N2CCCCC2)C(=O)C(C)(C)O3)c1 | 4.38%
82 | CCOc1ccc(NC(=O)CCCNC(=O)Cn2cnc3sc(C)c(C)c3c2=O)cc1 | 19.5%
83 | Fc1ccc(-c2n[nH]c(=S)n2/N=C/c2c[nH]c3ccccc23)cc1 | -5.95%
84 | Nc1nc(SCC(=O)Nc2ccc(Br)cc2F)n[nH]1 | 9.94%
85 | NC(=O)c1c(NC(=O)CSc2nnc(-c3ccco3)n2-c2ccccc2)sc2c1CCC2 | 9.79%
86 | Cc1cc(/C=N/NC(=O)C(O)(c2ccccc2)c2ccccc2)c(C)n1-c1cccc(C(=O)O)c1 | 11.8%
87 | O=C(Nc1ccc(S(=O)(=O)N2CCOCC2)cc1)c1ccco1 | -18.9%
88 | COc1cc(SC)ccc1C(=O)Nc1ccc2c(c1)CCN2S(C)(=O)=O | 9.24%
